Measured values taken from the supplement of paper PMC4723716.
Whole data set: some 3,600 compounds, median “viability index relative to DMSO control” near 0.81, cut for the lowest 2% near 0.13. Some of the results follow.

The compounds below were run on Plasmodium falciparum NF54 stage V gametocytes (assay: viability index relative to DMSO control (fraction); higher = less gametocyte killing). Conditions: 1.25 µM, incubation time: 72 h.
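Note: 384-well serum-free SaLSSA: MitoTracker Red CMXRos staining with saponin lysis, high-content imaging, treated-well particle count divided by plate-mean count of DMSO wells.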

| SMILES | viability index |
| --- | --- |
| CN(C)c1ccc(C=Cc2nc(=O)c3ccccc3o2)cc1 | 0.71 |
| Cc1ccc(-c2nc3cc(NC(=O)c4ccc(Cl)cc4Cl)ccc3o2)cc1 | 1.32 |
| C[n+]1c(C=Cc2ccc(Cl)c(Cl)c2)ccc2ccccc21 | 0.41 |
| Cc1ncc(CCCCN(C)C)c2c1[nH]c1ccccc12 | 1.29 |
| CCN(CC)CCCNC(=S)N(Cc1ccccc1)Cc1cc2cc(C)c(Cl)cc2[nH]c1=O | 0.921 |
| O=C(OCCOc1ccc([N+](=O)[O-])cc1)c1ccc(Br)o1 | 0.851 |
| CCCCOc1ccc(NC2=NC3(CCCC3)NC(N)=N2)cc1 | 1.2 |
| Cc1ccc(NC2=C(c3ccc(C(F)(F)F)cc3)C(=O)c3ccccc32)cc1F | 1.06 |
| CCN(CC)CCCN(Cc1cc2cc3c(cc2[nH]c1=O)OCCO3)C(=S)Nc1cccc(Cl)c1 | 0.842 |
| Cc1ccc(C)c(Nc2nc(NCc3ccccc3)c3ccccc3n2)c1 | 0.762 |
| CCCCNC(=O)CSCc1cnn(-c2ccccc2)c1-n1cccc1 | 0.916 |
| Clc1ccc(Nc2nc3nonc3nc2Nc2ccc(Cl)c(Cl)c2)cc1Cl | 0.338 |
| CCCCCCCn1c2c(c(=N)c3c1CCC3)CCCC2 | 0.387 |
| COc1ccc(CC(=O)Nc2ccc(S(=O)(=O)N3CCCCCC3)cc2)cc1 | 1.01 |
| CC(C)(C[N+](C)(C)C)C1OC2CCCCC2C2C=CCCC21 (centres undefined) | 0.973 |
| O=C(O)C1Cc2c([nH]c3ccccc23)C(c2ccc(Cl)cc2Cl)N1 (centres undefined) | 1.09 |
| c1ccc(CCc2nc3cccnc3n2C2CCN(C3CCN(Cc4ccccc4)CC3)CC2)cc1 | 0.769 |
| COC(=O)C1=CNC=C(C(=O)OC)C1c1cc(OC)c(OC)cc1OC | 0.992 |
| Cc1ccc(CN2CCN(Cc3cn(C(C)C)c4ccccc34)CC2CCO)o1 (centres undefined) | 0.788 |
| CCN1CCN(c2nc3ccccn3c(=O)c2C=C2SC(=S)N(C(C)C)C2=O)CC1 | 0.649 |

| SMILES | viability index |
| --- | --- |
| CC(=O)N(C1=C(N2CCCC2)C(=O)c2ccccc2C1=O)c1ccc(I)cc1 | 0.879 |
| NC(=O)Oc1ccc(Cc2ccccc2)cc1 | 1.08 |
| COc1ccc([N+](=O)[O-])cc1NC(=O)C(C)Nc1ccc(N(C)C)cc1 (centres undefined) | 1.13 |
| COc1ccccc1C1SCCN1C(=O)Nc1ccc(Cl)c(Cl)c1 (centres undefined) | 0.909 |
| COc1ccc2c(c1)[nH]c1c(N3CCN(C(c4ccccc4)c4ccccc4)CC3)ncnc12 | 0.767 |
| Cn1nc(C(F)(F)F)c(-c2ccc(F)cc2)c1NC(=O)Nc1ccc(F)cc1 | 0.456 |
| Cc1ccc2c(C)nc(Nc3nc(C)cc(-c4ccccc4)n3)nc2c1 | 0.31 |
| CCN(CC)c1ccc2c(c1)OC(N)=C(C#N)C2c1ccsc1 (centres undefined) | 1.2 |
| CC(Cc1ccsc1)Nc1nc2nonc2nc1N(C)C (centres undefined) | 0.853 |
| CCN(CC)S(=O)(=O)c1cc(S(=O)(=O)c2ccc(Cl)c(S(=O)(=O)N(CC)CC)c2)ccc1Cl | 1.07 |
| CC[n+]1c(C=C2Sc3cc(NC(C)=O)ccc3N2C)ccc2ccccc21 | 0.857 |
| Oc1ccc(-c2ccccc2)cc1CN1CCC(c2ccccc2)CC1 | 0.529 |
| Oc1nc(-c2ccccn2)nc(C(F)(F)F)c1Br | 0.62 |
| CC(C)C(=O)N1CCOc2c(cc(-c3csc4ccccc34)cc2OCCc2ccccn2)C1 | 0.529 |
| CCCn1nc(NS(C)(=O)=O)c2cc3cccc(C)c3nc21 | 0.795 |
| O=C(c1ccc([N+](=O)[O-])cc1)c1ccc(Cl)c(Cl)c1 | 0.574 |
| COCCNC(=O)[C@@H]1C[C@@H](Sc2nc3ccccc3[nH]2)CN1Cc1ccc2ccccc2c1 | 1.12 |
| COC(=O)C(C)NC(=O)c1ccc(F)cc1 (centres undefined) | 0.867 |
| CN(C)c1ccc(NC=CC(=O)C(C)(C)C)cc1 | 0.861 |
| CCC(C)(C)c1ccc(OCC(O)CNCc2ccccc2)c(C(C)(C)CC)c1 (centres undefined) | 0.392 |

| SMILES | viability index |
| --- | --- |
| COc1ccc(O)c(C=NNc2nc3ccccc3[nH]2)c1 | 0.356 |
| COc1ccc(-c2noc(-c3cccc(I)c3)n2)cc1OC | 0.962 |
| Cc1cc(Nc2cccc(Cl)c2)nc(NCc2ccccc2)n1 | 0.525 |
| CCN1CCC(NC2CCCc3c2[nH]c2ccc([N+](=O)[O-])cc32)CC1 (centres undefined) | 1.07 |
| COc1cc2nc(NCc3cccnc3)n3nc(-c4ccccc4)nc3c2cc1OC | 0.667 |
| Cc1oc2c(cc(NS(=O)(=O)c3ccc(F)cc3)c3ccccc32)c1C(=O)OCc1ccccc1 | 0.838 |
| CCCN(CCC)S(=O)(=O)c1cc(Br)cc2c1N(C(=O)CC)CC2 | 0.73 |
| COc1cc(OC)cc(C(=O)NCc2n[nH]c(=S)n2-c2cccc(C(F)(F)F)c2)c1 | 0.317 |
| Cc1ccc(N(C(=O)c2snc(C(=O)NC3CCCCC3)c2N)C(C(=O)NCCc2ccccc2)c2ccc(O)cc2)c(C)c1 (centres undefined) | 0.821 |
| O=C(Nc1ccc(-c2nc3cc(NC(=O)c4cccc([N+](=O)[O-])c4)ccc3[nH]2)cc1)c1cccc([N+](=O)[O-])c1 | 1.03 |
| O=C(NNC(=S)NCc1ccco1)C(F)(F)F | 1.22 |
| O=C1CSC(=Nc2ccc(F)c(Cl)c2)N1c1ccc(F)c(Cl)c1 | 0.682 |
| c1ccc2[nH]c(Sc3ncnc4sc5c(c34)CCC5)nc2c1 | 0.853 |
| CCN(CC)S(=O)(=O)c1ccc(C(=O)NCc2nnc(SCC(=O)N3CCc4ccccc43)n2-c2ccccc2OC)cc1 | 0.661 |
| COc1ccc(-c2ccc(C=NNC(=O)CNC(=O)c3ccc4c(c3)OCO4)o2)cc1Cl | 0.815 |
| COC(=O)C1=CNC=C(C(=O)OC)C1c1cc(Br)ccc1OC | 0.647 |
| c1ccc(-c2ccnc3c2ccc2c(-c4ccccc4)ccnc23)cc1 | 0.779 |
| CCCC(c1nnnn1C1CCCCC1)N1CCN(C(=O)c2ccco2)CC1 (centres undefined) | 1.13 |
| Cc1cc(Cl)ccc1OC(C)C(=O)N1CCc2ccccc21 (centres undefined) | 0.84 |
